In the supplement of paper PMC10126150:
Values marked as one replicate rest on one cluster of the flow cell; about a third of the high ones do not repeat.

System: ATP
Assay: switch fluorescence ratio, 500 uM ATP over buffer (Cy3 cluster intensity, sum of 5 cycles each) (fold (ratio)); higher = stronger signal-on switching upon ATP binding; sequences stand for … in TCGTCGGCAGCGTCAGATGTGTATAAGAGACAGTTTTTTTTTTTTTTTTTTTTTTTTT…TC
Conditions: aptamer strand: ATP DNA aptamer (quencher-CACCTGGGGGAGTATTGCGGAGGAAGG + anchor), 100 nM annealed; ATP concentration: 500 uM; one replicate
Procedure, shortened: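 Five buffer/ATP imaging cycles were run on Cy3-labelled switching-strand clusters on a modified Illumina MiSeq flow-cell, with NaOH stripping and re-annealing between cycles. In each cycle, clusters annealed to 100 nM quencher-labelled ATP aptamer were imaged in selection buffer, then after 15 min with 500 uM ATP at 22 °C. Per cluster, the fluorescence ratio is summed target-cycle over summed buffer-cycle Cy3 intensity, averaged per switch-domain sequence. Only clusters within 100-1000 RFU were kept.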
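Note: ATP exposure 15 min at 22 °C before imaging.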

Sequence | switch fluorescence ratio
CGAGCACGAA | 0.978
GCGCTATGGA | 1.07
TGGTGTCTTG | 0.984
TGCACGGGGT | 1.06
ATCGATGTTA | 0.98
AATTGAGGGT | 1.06
TTAAGACCGC | 1
CTTGGCAGCA | 1.02
GAAACCGTAT | 1.04
GAAGGCGTTG | 0.967
TGTCCTAATA | 0.984
GTATGTTTTG | 0.981
GGTGCGTAGC | 0.972
CCAGGTGATC | 3.88
AGGTGGCTCT | 1
TAGTTGAGTA | 0.966
GGAAACGAAA | 0.997
ACTACATCCG | 1.25
ATGGGACAGA | 1
ACCGTGCACG | 1.02
GCGTGGAAGG | 1.02
AAGCAGGAAA | 1.02
TGCGTGACGT | 0.964
ACTCGCAGCG | 1.08
TGGATGATGT | 0.986
TTAGTTCAAT | 0.972

Sequence | switch fluorescence ratio
CAATCCCTTT | 0.985
AATAAGGGCG | 0.951
ATTTGGTCGG | 0.982
CACGTTCTC | 1.07
GGGGGGCA | 1.02
GACATTGCAC | 1.09
GTGGAACCGG | 1.01
TGCCACTGAG | 1.11
AACGCCTTTA | 1.04
TGTAGTGGTA | 0.988
CCCCTACGCG | 1.33
CGGGACTGAG | 0.999
GAGTCACCGG | 0.975
GACGGGGCGC | 1.04
GGGTTTTGTC | 0.962
AGTCGACACT | 1.03
GCTTTGTGGT | 1.02
ACGGTTTATA | 1.05
ATTTGGTATG | 0.982
ACGGGTCAGT | 1.04
ATAAATAGAT | 0.982
CGCACAGTAT | 1.11
TACAATCATA | 0.939
GGGATCCCGG | 0.996
AACGAGTCCG | 1.15
TCCGGTGCGT | 1.25

Sequence | switch fluorescence ratio
TTATACATTC | 1.01
CATGATTTTG | 0.996
ACACCTTAAT | 1.14
ATACTCAGTC | 1.01
GTTTGACGGT | 1.04
GGCTGGGAGA | 1.02
CGTTCAGGCC | 1.02
ACTAAGGTTA | 1.01
CGATTATGGA | 1.03
AGTGTGGG | 1.01
GTAGAGCTAG | 0.993
AAAGACATCC | 1.07
GATTATTACG | 1.02
TAATGATAAG | 0.983
CTTGTTGGGC | 1.03
CTATGATATA | 1.01
TGAAACTCTG | 1.11
GTCGGGGCGC | 1.04
TTACGGGAGC | 1.02
GACATCTTAC | 1.21
AAACTCAGGT | 1.34
CTGAGGGCGG | 0.992
CAAGACTTCT | 1.06
AATTTAAG | 0.995
TCAACAGCGT | 1.03
GCGACGGATT | 1.18

Sequence | switch fluorescence ratio
CGCGGATCGA | 0.973
CGGACAGGGG | 1.05
GAATTTGTAC | 1.12
TCATTAACAA | 0.995
ATGTACATGG | 1.02
GGAGGCAACC | 1.05
CCCTCCATAA | 2.12
GATGTTAAAG | 0.964
GGGTCAGGTC | 1.09
TGTATGTAA | 1.04
GTTAAGCGTT | 1.01
TAAAAGAGAG | 1.06
CGCGCAGCGA | 1.04
CCGCCCCTTC | 2.03
AATATTAGGG | 0.987
CAGGTCGTCG | 0.936
TTAGAGAGAC | 1.12
GGGAGGTGCA | 0.979
TCATGTGTCT | 0.993
TACAAGGGTC | 0.957
AGAATAATC | 1
CGACGCCTTA | 1.69
CGCACTAAAA | 1.87
AATAGTTACG | 0.985
TTCGGGCCAA | 1.67
TCACGGTCGC | 0.955

Sequence | switch fluorescence ratio
CTAGGTAGAG | 0.988
ATCTGTGGGT | 0.989
TATGATGGAG | 1.04
GCGCATAGGC | 1.64
TACCATACCA | 1.26
GAAATGCGG | 0.971
GACTGCCGCC | 1.32
CTGTGACAGA | 0.988
CAATTCTGGG | 0.971
CTTTTAACCG | 1.05
AACTGAGGG | 1
TTTCCAGGAG | 1.21
GGCGTATGTC | 1
GAATTCCAGG | 1.23
TTTACGGGC | 1.09
CAGCCGACGG | 1.05
AGAGAGATCA | 1.04
CTTGACGGGG | 0.946
AGAATTAAGA | 0.998
TTTAAAATCC | 1.01
ACCACTGCTC | 1.14
AGCGGCGTGA | 1.01
ATCTGGTGAC | 1.01
AGAATGTTGG | 0.971
TCTAGACTGT | 1.02
CCCATCAGTG | 3.09

Sequence | switch fluorescence ratio
GCATTCTCAA | 0.988
GCTATTCTT | 1.01
GAATGGCGGG | 0.964
CGGAGACTGT | 1.03
AAAGACATAT | 0.98
CAAGAAAACA | 1.03
TGGTGTGATA | 1.05
AAGGTATTCG | 1.02
GATGTACAGC | 0.964
CCTATCAGAG | 1.02
TTAATCGTAC | 1.25
AAAAAACAAC | 1.07
TAACGTGCCC | 0.957
CAATATGTAC | 1.11
CAGGAGCAGG | 1.06
GTGGTCACTG | 1.06
GATACTTAAG | 1
TGGTAGCACC | 0.995
TGACTTGGCA | 1.02
GGGGCGTGGT | 1.02
CATTTATACG | 1.01
CAGATGGTG | 0.988
GTACGGAGGC | 1.03
